Measurements taken from the supplement of paper PMC4166925.
± gives the standard deviation of the averaged measurements. The full ranking holds about 33,000 sequences; the median of “E-score (dimensionless, -0.5 to 0.5)” is about -0.046, and the highest 2% start at about 0.36. Some of the results follow.

Tested on: T1, SpTbr T-box DNA-binding domain (GST fusion)
T1 sequence: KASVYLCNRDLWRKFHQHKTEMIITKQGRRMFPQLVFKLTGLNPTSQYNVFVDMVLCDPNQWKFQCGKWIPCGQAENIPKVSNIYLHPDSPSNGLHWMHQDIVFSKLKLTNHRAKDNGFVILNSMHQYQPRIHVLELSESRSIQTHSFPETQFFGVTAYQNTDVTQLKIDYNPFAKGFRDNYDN
Assay: PBM E-score of 8-mer (E-score (dimensionless, -0.5 to 0.5)); Tbr is Tbrain of the sea star Patiria miniata (Pm) or the sea urchin Strongylocentrotus purpuratus (Sp); higher = stronger binding preference; most listed sequences are background and not binding sites
Details: the construct has about 5 more residues each side
Summary of the method: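 Each ungapped 8-mer received an enrichment E-score from the Universal PBM Analysis Suite, averaged over duplicate arrays. The proteins were Tbr T-box DNA-binding domains, covering the whole T-box plus about five flanking residues, fused to GST and expressed in BL21 E. coli at 20 °C before glutathione affinity purification. Universal Agilent oligonucleotide arrays were made double-stranded by primer extension and incubated with 200 nM protein in PBS (pH 7.5). The arrays were then scanned and quantified, and every 8-mer was scored from probe intensities.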

Sequence	PBM E-score of 8-mer
CAGACGCA	-0.238 ± 0.033
TCAAACCA	-0.203 ± 0.059
CACTCTAC	0.0875 ± 0.014
ACCAGCAG	-0.175 ± 0.0041
CGGTGGTC	-0.17 ± 0.031
AGCCAGGA	-0.0911 ± 0.039
ACATTCAT	-0.0127 ± 0.0095
ATCGGGCA	-0.0298 ± 0.0004
GGCTCACC	0.00165 ± 0.028
TGCAACAA	-0.00651 ± 0.095
GTATTAGA	-0.214 ± 0.02
GCGGAGCC	-0.1458 ± 0.00053
ATAAGATG	-0.148 ± 0.069
ATACCACC	0.104 ± 0.026
CATGCTAG	-0.0781 ± 0.11
CATATGTC	-0.0101 ± 0.15
CTCTATCC	-0.183 ± 0.02
CTTGCTCC	-0.016 ± 0.0096
GTCGACTA	0.0757 ± 0.0078
GGTTCTAC	-0.0878 ± 0.052
AATTCAAG	-0.189 ± 0.065
ACTTGGGA	0.0129 ± 0.055

Sequence	PBM E-score of 8-mer
GCTCAAAA	0.0125 ± 0.064
CTCATGCA	-0.0424 ± 0.071
TTATTAAA	-0.0454 ± 0.075
GGCATGCC	-0.091 ± 0.049
ATTTTCTC	0.0719 ± 0.0033
AGTAGCCA	-0.116 ± 0.052
AGATTCGA	-0.0181 ± 0.0043
AAAGACCT	-0.0818 ± 0.046
GATTGATA	0.0155 ± 0.045
CATGCTGC	-0.151 ± 0.096
CTGATAGA	-0.171 ± 0.029
CCCTTATA	-0.265 ± 0.0083
AAGGAAAG	-0.0606 ± 0.032
CTCAAGTC	-0.0664 ± 0.079
AACGGGGC	-0.0487 ± 0.031
CTTGTGAA	0.353 ± 0.034
AACGTCAA	-0.0258 ± 0.023
AATATGGT	-0.0209 ± 0.014
ATAGGACC	-0.165 ± 0.017
AAACGCCA	0.121 ± 0.0059
CGTAGTCC	-0.219 ± 0.016
AAGGTGCA	0.35 ± 0.01

Sequence	PBM E-score of 8-mer
CAAAGAGG	0.00417 ± 0.065
GATTCATA	-0.14 ± 0.096
AATCGACT	-0.182 ± 0.0061
CTAGGAGC	0.0293 ± 0.071
CAATAGCC	-0.0482 ± 0.028
CCTCGCTC	0.00354 ± 0.062
TGGTTCAA	-0.119 ± 0.011
ACGTGACT	0.0957 ± 0.028
CCTAGCAA	0.0777 ± 0.054
GACACGAC	0.152 ± 0.033
CGACCGCA	0.133 ± 0.018
AATGACTA	-0.0274 ± 0.0033
AAGATGAT	0.114 ± 0.036
ATGTGGGG	0.105 ± 0.066
AGCTGTAG	-0.198 ± 0.05
GCCCCCAA	-0.0939 ± 0.07
ACATTGGT	0.143 ± 0.015
GGTAGAAC	-0.0679 ± 0.082
ACTATAAG	-0.0205 ± 0.1
GAGGTGGC	0.3855 ± 0.0037
TGGATTAA	-0.175 ± 0.012
CTCCCGTA	-0.2068 ± 0.0016

Sequence	PBM E-score of 8-mer
AGCCGAAA	-0.174 ± 0.01
CGCTGACA	0.315 ± 0.045
GGCTTGCA	-0.202 ± 0.012
GTGCTAAC	0.432 ± 0.012
AATTTACC	-0.186 ± 0.004
ATCATATA	-0.0878 ± 0.0091
CCACAATC	0.0731 ± 0.027
CTCCTATA	-0.123 ± 0.044
CGTGCCTC	0.0566 ± 0.12
TAAGGACA	-0.102 ± 0.18
GCACTTAC	0.208 ± 0.017
GAACTGAA	-0.203 ± 0.0021
AGTCCGGC	-0.202 ± 0.017
ACATAGAG	0.0104 ± 0.046
CAGGAAGA	-0.141 ± 0.032
ACGTCTGA	-0.0348 ± 0.011
ACAATGCT	-0.0281 ± 0.021
CTGACACC	0.4611 ± 0.0014
ACGGACCA	-0.345 ± 0.0098
CAGGGTAG	-0.0171 ± 0.014
AGTCTACG	-0.209 ± 0.008
AGCAACAC	0.376 ± 0.026

Sequence	PBM E-score of 8-mer
GGTCCACC	-0.057 ± 0.027
AGCTATCA	-0.08557 ± 0.00069
GTCCAGAC	-0.0987 ± 0.0032
GAAAGAAA	-0.109 ± 0.056
GCTACTGA	0.0912 ± 0.025
CAGTGACC	0.0993 ± 0.0032
CCTGCAAA	0.0204 ± 0.04
AACGGTAA	-0.221 ± 0.085
ACTCCCGA	-0.112 ± 0.069
GTAGGGTA	0.0507 ± 0.035
GTAAGCAC	0.068 ± 0.023
TACAAGAA	-0.162 ± 0.068
CTAGTCAC	0.157 ± 0.038
CCGGGCTA	-0.195 ± 0.029
CACAGGTG	0.453 ± 0.005
CTGCCCAA	-0.0499 ± 0.13
GTTGACAA	0.389 ± 0.016
ATACGTGC	0.0518 ± 0.01
AACTACCC	-0.101 ± 0.02
AAGGTAGA	-0.205 ± 0.051
AGATTTAA	-0.0993 ± 0.024
